Results published in the RNAGym collection of RNA variant scans (doi:10.7554/elife.90254).
The source gives no read counts; variants with many changes may rest on few reads.

B1: LINE1-mini (parent)
chain: GGCAGAGCUCAACACAGCGUGGCAAAGUGGCUGUGGCUAGACUGCC

Variants of: B1
Test: self-cleavage, relative activity (ratio to wild type); higher = more cleavage; in vitro, sequencing; the parent is a self-cleaving ribozyme
C15A G30C C42U gave a self-cleavage of 0.07.
Variant G7C G17U G44C has a self-cleavage of 0.06.
Work on G2U A4G G17C G19A C37U yielded a self-cleavage of 0.07.
C18A G22A G30U G44C showed a self-cleavage of 0.08.
Variant A11G G17C C31A has a self-cleavage of 0.01.
C3A G7C A16U U32A gave a self-cleavage of 0.1.
For G2U A16C C18G C31A C42A, the self-cleavage was 0.
Work on C3U C18G G27C C46U yielded a self-cleavage of 0.04.
Work on A24G C31U G33U yielded a self-cleavage of 0.06.
With C15G G17A C18A G22C C31A the self-cleavage was 0.04.
In the case of G2U A12G G30U U32A, the self-cleavage is reported as 0.02.
In the case of A12C C13G G19U G27U, the self-cleavage is reported as 0.02.
Variant G1C C3A U34G has a self-cleavage of 0.07.
For C3A G22A A26G C37A, the self-cleavage was 0.08.
C10A C13A C15U C31A C42A C46U gave a self-cleavage of 0.01.
G5A G7A C13A U20A G22A showed a self-cleavage of 0.83.
Work on C15A U20A U28A C45U yielded a self-cleavage of 0.14.
C15G G19U G21U A25U G44U showed a self-cleavage of 0.02.
Work on A6G G7C G19A yielded a self-cleavage of 0.1.
For A4C U20C G22C A26G C37A, the self-cleavage was 0.03.
G1C A6G C8A G17C U38A gave a self-cleavage of 0.07.
In the case of G1U C13G C31U, the self-cleavage is reported as 0.01.
With C10G C15G C45A the self-cleavage was 0.03.
G1A U9A G33A G44A gave a self-cleavage of 0.42.
Variant G2U C3G C8U A39U has a self-cleavage of 0.24.
Variant C3G G27A G40U C45G has a self-cleavage of 0.09.
With G2A A11U A26G A41U the self-cleavage was 0.05.
For G27A U32G U43C C45G, the self-cleavage was 0.07.
In the case of A4U G5C A16C C46A, the self-cleavage is reported as 0.03.
Variant C8A U9G U38G A39G has a self-cleavage of 0.05.
A11C G29A C45U showed a self-cleavage of 0.05.
Variant A12U G27U G36A has a self-cleavage of 0.01.
In the case of A12U A16U G17U A41C G44A, the self-cleavage is reported as 0.01.
With U9C G36A U38A A41U the self-cleavage was 0.1.
For G7U U20G A24G G36U, the self-cleavage was 0.04.
For G7A G30A G40U A41C, the self-cleavage was 0.11.
Variant A11U C13U G22U A26U has a self-cleavage of 0.04.
Work on G27U G40U C46A yielded a self-cleavage of 0.06.
Variant G1C A25U G27C A39C has a self-cleavage of 0.
With C3U G19C G21U A25U U32A G36C the self-cleavage was 0.05.
C10G G17U C45A gave a self-cleavage of 0.01.
C3G A11U A25G gave a self-cleavage of 0.02.
Work on G1C G7C A11U A14G G29C G30U yielded a self-cleavage of 0.01.
Variant C15U A16U U28C G33A has a self-cleavage of 0.1.
In the case of A16G U28G C37U A39G, the self-cleavage is reported as 0.
A12C A25U A26U U28G gave a self-cleavage of 0.
Variant G1A G2U C10G U20G G35A has a self-cleavage of 0.02.
Work on C10G A26C U32G C37G yielded a self-cleavage of 0.04.
Variant C13G C37A C45G has a self-cleavage of 0.05.
A12C A14C U28C showed a self-cleavage of 0.03.
Work on G7A G19A A39G yielded a self-cleavage of 0.09.
For C10G G27A U28C U32C U38A U43G, the self-cleavage was 0.
With C13G A14C A25U the self-cleavage was 0.04.
Work on C3G C18A G30A yielded a self-cleavage of 0.11.
G5A U9C C15G G35C gave a self-cleavage of 0.02.
For G2U G27U G30C, the self-cleavage was 0.06.
Variant C8A A14U G30C has a self-cleavage of 0.1.
Variant A6U C15A C23U G27U A39C has a self-cleavage of 0.08.
In the case of G1U A14U G36C, the self-cleavage is reported as 0.01.
Variant A16U G36C C45U has a self-cleavage of 0.
Work on C13A C15A U32C yielded a self-cleavage of 0.
Work on A12U A14U G19C yielded a self-cleavage of 0.06.
For C8U C15U U20G G44U, the self-cleavage was 0.1.
C8A C13A C18G U38A G40A showed a self-cleavage of 0.08.
In the case of C13G A14G G21C U38G, the self-cleavage is reported as 0.02.
Work on C8U C15U G29U G35U A41C yielded a self-cleavage of 0.09.
For G5U U9C G29C, the self-cleavage was 0.05.
For G5U G27A U38G C46G, the self-cleavage was 0.03.
A4G C10A A16U G35A gave a self-cleavage of 0.05.
Work on G1A U28A C37A A41U yielded a self-cleavage of 0.15.
Variant C3A C8U G29C U32C has a self-cleavage of 0.5.
G5A U28G U34A G44A showed a self-cleavage of 0.04.
In the case of C10A A12G A26G G44C, the self-cleavage is reported as 0.01.
With C8G U9C G22A A25U the self-cleavage was 0.01.
C3U G5U C8A G35U showed a self-cleavage of 0.11.
Variant C3G C8U A24C U28G has a self-cleavage of 0.16.
A11G G21C A25G U28A gave a self-cleavage of 0.02.
With G1A U9C A16G G17C G29U G44U the self-cleavage was 0.1.
With A11U U20C U32C the self-cleavage was 0.03.
Variant A6G U28A C42U has a self-cleavage of 0.01.
C15A G22A G30A showed a self-cleavage of 0.07.
Variant G7U C8U G19C U20A A25U U28G G36A C45U has a self-cleavage of 0.29.
For G2U A14U G17U U28G U34C, the self-cleavage was 0.01.
A24C A25G C31G U38G C42A gave a self-cleavage of 0.
Variant C13A A14G G40U has a self-cleavage of 0.01.
G19C A25C G29A U32C C37U G44C gave a self-cleavage of 0.04.
For C13G G33U U34A U43A C45U, the self-cleavage was 0.02.
In the case of G2C G35A A39G, the self-cleavage is reported as 0.53.
For G2U C8U C10G A14C G19C G35C, the self-cleavage was 0.
A14G G21U A26C gave a self-cleavage of 0.19.
G2C U9C C23A A24U G27U gave a self-cleavage of 0.02.
Work on C3U G7U C8A G30U C31G C46U yielded a self-cleavage of 0.21.
C10U G21U G35U G36A C45G gave a self-cleavage of 0.03.
In the case of C13U C18U U20C A25U, the self-cleavage is reported as 0.4.
G22U A26U G35A gave a self-cleavage of 0.04.
With G7C C8U A12C A26C the self-cleavage was 0.02.
Work on G22U A39G C42G yielded a self-cleavage of 0.
G5A G17C C23U gave a self-cleavage of 0.11.
With G19U G21U C42A the self-cleavage was 0.22.
In the case of C15A C42A C46U, the self-cleavage is reported as 0.03.
Work on A14C G21U G36C G40A yielded a self-cleavage of 0.
C3A A14G C31A G33U showed a self-cleavage of 0.08.
In the case of C3G A24U G30C, the self-cleavage is reported as 0.09.
For G7C C8U A11C A16G G17U C46A, the self-cleavage was 0.01.
For C3A A6G A24G U32G, the self-cleavage was 0.09.
G7U C23G U32A U43C gave a self-cleavage of 0.04.
In the case of A26G U32A G40A, the self-cleavage is reported as 0.09.
In the case of A4U A6G G44A, the self-cleavage is reported as 0.07.
With A14C U20A G36C G40C the self-cleavage was 0.07.
U20C G27U U38A showed a self-cleavage of 0.82.
In the case of G2C C18A G30U G36U, the self-cleavage is reported as 0.02.
In the case of G22A A25U G44A, the self-cleavage is reported as 0.4.
G7C C8U G19C U32C C42A showed a self-cleavage of 0.09.
With G5U G22U A25C the self-cleavage was 0.02.
With G21C G27C G33U G40C C46U the self-cleavage was 0.04.
G1A G27U C37U gave a self-cleavage of 0.07.
A11C A12U U34A A39C G40A showed a self-cleavage of 0.04.
For G29A C37A C46U, the self-cleavage was 0.03.
With C13G C15A U28A the self-cleavage was 0.17.
For G17C A24G C37U, the self-cleavage was 0.08.
In the case of C3U G35A A41G, the self-cleavage is reported as 0.06.
For C3A C15U G17A G22A C23G C46U, the self-cleavage was 0.1.
In the case of G2U G5U A16U, the self-cleavage is reported as 0.02.
G1U A11U A24C gave a self-cleavage of 0.03.
For C3A G5U G40C C45U C46G, the self-cleavage was 0.03.
In the case of U32G C37U U38A, the self-cleavage is reported as 0.03.
With C3A A4C G36U the self-cleavage was 0.08.
G5C G22A G27U showed a self-cleavage of 0.03.
With A4G C13U A14G C15A U34G C37U A39U the self-cleavage was 0.93.
Work on G1U G33A C37A G40A yielded a self-cleavage of 0.04.
With G2A C23U A24U G30U the self-cleavage was 0.21.
C3U C13U C23A A41G showed a self-cleavage of 0.53.
With C3G C23A U32A G35U the self-cleavage was 0.03.
In the case of G30U U38G A39U, the self-cleavage is reported as 0.06.
Work on U9G C10G U20C A41C C42A C45U yielded a self-cleavage of 0.
Variant G2A G22A G27C G29A U43A has a self-cleavage of 0.12.
In the case of G5C A6U G19A G30U C31G, the self-cleavage is reported as 0.04.
U9G A12C G22C showed a self-cleavage of 0.
With C10A G36A G40U G44A the self-cleavage was 0.
Variant C10G A24G G44A has a self-cleavage of 0.11.
For G7U A12U C13U C46A, the self-cleavage was 0.05.
For G1U C13U G27U A41U C46A, the self-cleavage was 0.05.
Variant G2C C3U C18U has a self-cleavage of 0.45.
For C37G U38C C42U, the self-cleavage was 0.08.
In the case of C3U A11C G21U G36A C45A, the self-cleavage is reported as 0.03.
Work on G1A C8A A24C A25U U34C C42A yielded a self-cleavage of 0.63.
G1C C8A C10U A12C C15U U28C C45G showed a self-cleavage of 0.03.
C13G G21C C23U G30U showed a self-cleavage of 0.04.
G1A A6U A24G C42U gave a self-cleavage of 0.18.
With G1C G29U G36A the self-cleavage was 0.05.
With G5C G7C C46A the self-cleavage was 0.23.
Variant G22U U34G C45U has a self-cleavage of 0.21.
Work on A6C A14C G17A U28C G30U G36U yielded a self-cleavage of 0.02.
Work on C3A C10A A14C G21A G29U G30A C31U C45U yielded a self-cleavage of 0.02.
Work on G5U C10A A39U C46U yielded a self-cleavage of 0.03.
C10G G19A G21U U28A G29C C37G showed a self-cleavage of 0.
Variant G7A A26G U28G U34G has a self-cleavage of 0.11.
With C37G C42G G44C C46A the self-cleavage was 0.03.
G1A G19C G40C A41C C45A showed a self-cleavage of 0.07.
With A4U C8U A14U A16U the self-cleavage was 0.13.
In the case of C3A A16G G22C C31U G40U, the self-cleavage is reported as 0.03.
With G29C G40U C45G the self-cleavage was 0.12.
Work on U20A A24U U34A yielded a self-cleavage of 0.11.
With A26U G27C G33C G36U the self-cleavage was 0.04.
U9G A12C A24C showed a self-cleavage of 0.
In the case of C8A G19U C23G, the self-cleavage is reported as 0.05.
Variant A4G A24C G29A has a self-cleavage of 0.73.
